The list shows a part of the results. The full chains were built here from the parent and the listed change. Inactive controls read about 0.05.

Experimental findings from the supplement of paper PMC12217912 are described below.

To fix the notation:
B1: TEV protease; numbered along this chain (parent)
chain: MGESLFKGPRDYNPISSSICHLTNESDGHTTSLYGIGFGPFIITNKHLFRRNNGTLVVQSLHGVFKVKDTTTLQQHLVDGRDMIIIRMPKDFPPFPQKLKFREPQREERICLVTTNFQTKSMSSMVSDTSCTFPSGDGIFWKHWIQTKDGQCGSPLVSTRDGFIVGIHSASNFTNTNNYFTSVPKNFMELLTNQEAQQWVSGWRLNADSVLWGGHKVFMVKPEEPFQPVKEATQL

Variants of B1 are the subject of this experiment. Kind of experiment: raw area under fraction-flipped curve 0-4 h after induction (AUC4h, not background-subtracted), DNA-recorder readout of cleavage of the substrate (dimensionless); higher = more cleavage of the substrate by the protease variant. The note with it: temperature: 34 °C; time window: 0-4 h after rhamnose induction. How it is done:
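In vivo DNA recorder in E. coli TOP10(DE3) ΔrhaA at 34 °C. Each TEVp single-site mutant (parent TEVp 0) is paired with a single-site variant of the 7-mer TEVs (canonical ENLYFQ|S). The substrate sits between flexible linkers in a Bxb1-sfGFP-TEVs-SsrA fusion, so cleavage stabilises Bxb1 and speeds flipping of a recombination array, read by NGS. The value is the raw area under the fraction-flipped curve over 0-4 h after rhamnose induction (AUC4h), with ≥20 reads per time point. It is not background-subtracted; inactive controls average about 0.047.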
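Note: Bxb1 expression induced with 0.2% (w/v) L-rhamnose at OD600 near 0.5, cultures sampled hourly, flipped fraction per protease–substrate barcode pair counted by paired-end Illumina sequencing.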

With MGESLFKGPRDYNPISSPICHLTNESDGHTTSLYGIGFGPFIITNKHLFRRNNGTLVVQSLHGVFKVKDTTTLQQHLVDGRDMIIIRMPKDFPPFPQKLKFREPQREERICLVTTNFQTKSMSSMVSDTSCTFPSGDGIFWKHWIQTKDGQCGSPLVSTRDGFIVGIHSASNFTNTNNYFTSVPKNFMELLTNQEAQQWVSGWRLNADSVLWGGHKVFMVKPEEPFQPVKEATQL [S18P], the “area with substrate ENAYFQS” value was determined as 0.0424, the “area with substrate ENCYFQS” value turned out to be 0.0528, the “area with substrate ENEYFQS” value came out at 0.0561 and the “area with substrate ENGYFQS” value is 0.0542. Moreover, the “area with substrate ENHYFQS” value came to 0.0454, the “area with substrate ENKYFQS” value is 0.066, the “area with substrate ENNYFQS” value was 0.0548 and the “area with substrate ENPYFQS” value came to 0.0454. The “area with substrate ENQYFQS” value was 0.0642, the “area with substrate ENRYFQS” value amounted to 0.0543, the “area with substrate ENSYFQS” value is 0.06 and the “area with substrate ENTYFQS” value was 0.0483. Besides, the “area with substrate ENVYFQS” value is 0.0725 and the “area with substrate ENYYFQS” value was 0.0488.

As to MGESLFKGPRDYNPISSVICHLTNESDGHTTSLYGIGFGPFIITNKHLFRRNNGTLVVQSLHGVFKVKDTTTLQQHLVDGRDMIIIRMPKDFPPFPQKLKFREPQREERICLVTTNFQTKSMSSMVSDTSCTFPSGDGIFWKHWIQTKDGQCGSPLVSTRDGFIVGIHSASNFTNTNNYFTSVPKNFMELLTNQEAQQWVSGWRLNADSVLWGGHKVFMVKPEEPFQPVKEATQL [S18V], the “area with substrate ENAYFQS” value amounted to 0.0659, the “area with substrate ENCYFQS” value came to 0.0695, the “area with substrate ENDYFQS” value came to 0.0606 and the “area with substrate ENEYFQS” value was 0.057. The “area with substrate ENFYFQS” value was 0.0452, the “area with substrate ENGYFQS” value was 0.0584, the “area with substrate ENHYFQS” value was found to be 0.0681 and the “area with substrate ENIYFQS” value amounted to 0.115. Also, the “area with substrate ENNYFQS” value was determined as 0.0505, the “area with substrate ENQYFQS” value turned out to be 0.0572, the “area with substrate ENRYFQS” value came to 0.0481 and the “area with substrate ENSYFQS” value was 0.0734. Further, the “area with substrate ENTYFQS” value was found to be 0.0747, the “area with substrate ENVYFQS” value came to 0.077 and the “area with substrate ENYYFQS” value worked out at 0.045.

For the variant MGESLFKGPRDYNPISSFICHLTNESDGHTTSLYGIGFGPFIITNKHLFRRNNGTLVVQSLHGVFKVKDTTTLQQHLVDGRDMIIIRMPKDFPPFPQKLKFREPQREERICLVTTNFQTKSMSSMVSDTSCTFPSGDGIFWKHWIQTKDGQCGSPLVSTRDGFIVGIHSASNFTNTNNYFTSVPKNFMELLTNQEAQQWVSGWRLNADSVLWGGHKVFMVKPEEPFQPVKEATQL [S18F], the “area with substrate ENAYFQS” value came out at 0.0608, the “area with substrate ENCYFQS” value is 0.0638, the “area with substrate ENDYFQS” value came out at 0.05 and the “area with substrate ENEYFQS” value worked out at 0.0541. The “area with substrate ENFYFQS” value was 0.0719, the “area with substrate ENGYFQS” value was 0.0722, the “area with substrate ENHYFQS” value was determined as 0.0609 and the “area with substrate ENIYFQS” value was found to be 0.122. The “area with substrate ENNYFQS” value was 0.0529, the “area with substrate ENPYFQS” value is 0.0828, the “area with substrate ENQYFQS” value is 0.056 and the “area with substrate ENRYFQS” value was 0.0673. In addition, the “area with substrate ENSYFQS” value was determined as 0.0583, the “area with substrate ENTYFQS” value came to 0.0689, the “area with substrate ENVYFQS” value came to 0.0662 and the “area with substrate ENWYFQS” value is 0.

For the variant MGESQFKGPRDYNPISSSICHLTNESDGHTTSLYGIGFGPFIITNKHLFRRNNGTLVVQSLHGVFKVKDTTTLQQHLVDGRDMIIIRMPKDFPPFPQKLKFREPQREERICLVTTNFQTKSMSSMVSDTSCTFPSGDGIFWKHWIQTKDGQCGSPLVSTRDGFIVGIHSASNFTNTNNYFTSVPKNFMELLTNQEAQQWVSGWRLNADSVLWGGHKVFMVKPEEPFQPVKEATQL [L5Q], the “area with substrate ENAYFQS” value came to 0.0628, the “area with substrate ENCYFQS” value was 0.0651, the “area with substrate ENDYFQS” value stood at 0.0619 and the “area with substrate ENEYFQS” value worked out at 0.0645. Moreover, the “area with substrate ENFYFQS” value worked out at 0.0564, the “area with substrate ENHYFQS” value was found to be 0.0605, the “area with substrate ENIYFQS” value was 0.17 and the “area with substrate ENKYFQS” value was 0.0585. The “area with substrate ENMYFQS” value is 0.0925, the “area with substrate ENNYFQS” value was 0.0557, the “area with substrate ENQYFQS” value is 0.0577 and the “area with substrate ENRYFQS” value was 0.0401. The “area with substrate ENSYFQS” value was determined as 0.0622, the “area with substrate ENTYFQS” value amounted to 0.0541, the “area with substrate ENVYFQS” value came to 0.0826 and the “area with substrate ENYYFQS” value was 0.0462.

For MGESLFKGPLDYNPISSSICHLTNESDGHTTSLYGIGFGPFIITNKHLFRRNNGTLVVQSLHGVFKVKDTTTLQQHLVDGRDMIIIRMPKDFPPFPQKLKFREPQREERICLVTTNFQTKSMSSMVSDTSCTFPSGDGIFWKHWIQTKDGQCGSPLVSTRDGFIVGIHSASNFTNTNNYFTSVPKNFMELLTNQEAQQWVSGWRLNADSVLWGGHKVFMVKPEEPFQPVKEATQL [R10L], the “area with substrate ENAYFQS” value was 0.0689, the “area with substrate ENDYFQS” value was 0.0625, the “area with substrate ENEYFQS” value amounted to 0.0486 and the “area with substrate ENFYFQS” value is 0.053. For the same variant, the “area with substrate ENHYFQS” value was 0.0578, the “area with substrate ENIYFQS” value was 0.122, the “area with substrate ENKYFQS” value is 0.0646 and the “area with substrate ENNYFQS” value came to 0.0617. In addition, the “area with substrate ENPYFQS” value was 0.0734, the “area with substrate ENQYFQS” value came out at 0.0545, the “area with substrate ENRYFQS” value stood at 0.0515 and the “area with substrate ENSYFQS” value came out at 0.0636. The “area with substrate ENTYFQS” value came out at 0.0428, the “area with substrate ENVYFQS” value came to 0.0688 and the “area with substrate ENYYFQS” value stood at 0.0568.

Turning to MGGSLFKGPRDYNPISSSICHLTNESDGHTTSLYGIGFGPFIITNKHLFRRNNGTLVVQSLHGVFKVKDTTTLQQHLVDGRDMIIIRMPKDFPPFPQKLKFREPQREERICLVTTNFQTKSMSSMVSDTSCTFPSGDGIFWKHWIQTKDGQCGSPLVSTRDGFIVGIHSASNFTNTNNYFTSVPKNFMELLTNQEAQQWVSGWRLNADSVLWGGHKVFMVKPEEPFQPVKEATQL [E3G], the “area with substrate ENAYFQS” value worked out at 0.0629, the “area with substrate ENCYFQS” value is 0.0642, the “area with substrate ENDYFQS” value was determined as 0.055 and the “area with substrate ENEYFQS” value was found to be 0.071. Further, the “area with substrate ENFYFQS” value stood at 0.059, the “area with substrate ENGYFQS” value came to 0.069, the “area with substrate ENHYFQS” value was found to be 0.0636 and the “area with substrate ENKYFQS” value worked out at 0.0721. The “area with substrate ENPYFQS” value came out at 0.0463, the “area with substrate ENQYFQS” value was 0.0595, the “area with substrate ENRYFQS” value stood at 0.0672 and the “area with substrate ENSYFQS” value stood at 0.0616. Further, the “area with substrate ENTYFQS” value was 0.0673, the “area with substrate ENVYFQS” value is 0.0561, the “area with substrate ENWYFQS” value came out at 0.0449 and the “area with substrate ENYYFQS” value was 0.0568.

Turning to MGESLFKGPRDYNPISSSICSLTNESDGHTTSLYGIGFGPFIITNKHLFRRNNGTLVVQSLHGVFKVKDTTTLQQHLVDGRDMIIIRMPKDFPPFPQKLKFREPQREERICLVTTNFQTKSMSSMVSDTSCTFPSGDGIFWKHWIQTKDGQCGSPLVSTRDGFIVGIHSASNFTNTNNYFTSVPKNFMELLTNQEAQQWVSGWRLNADSVLWGGHKVFMVKPEEPFQPVKEATQL [H21S], the “area with substrate ENAYFQS” value is 0.0585, the “area with substrate ENDYFQS” value stood at 0.0735, the “area with substrate ENEYFQS” value was 0.0625 and the “area with substrate ENFYFQS” value was determined as 0.0575. Further, the “area with substrate ENGYFQS” value is 0.0577, the “area with substrate ENHYFQS” value stood at 0.0564, the “area with substrate ENKYFQS” value worked out at 0.064 and the “area with substrate ENMYFQS” value was found to be 0.078. The “area with substrate ENPYFQS” value is 0.0629, the “area with substrate ENQYFQS” value worked out at 0.0539, the “area with substrate ENSYFQS” value came out at 0.0628 and the “area with substrate ENTYFQS” value was determined as 0.0412. The “area with substrate ENVYFQS” value was determined as 0.0927 and the “area with substrate ENYYFQS” value is 0.0574.

With MGESLFKGPRDYNPISSSQCHLTNESDGHTTSLYGIGFGPFIITNKHLFRRNNGTLVVQSLHGVFKVKDTTTLQQHLVDGRDMIIIRMPKDFPPFPQKLKFREPQREERICLVTTNFQTKSMSSMVSDTSCTFPSGDGIFWKHWIQTKDGQCGSPLVSTRDGFIVGIHSASNFTNTNNYFTSVPKNFMELLTNQEAQQWVSGWRLNADSVLWGGHKVFMVKPEEPFQPVKEATQL [I19Q], the “area with substrate ENAYFQS” value was found to be 0.0586, the “area with substrate ENCYFQS” value is 0.0582, the “area with substrate ENDYFQS” value is 0.0487 and the “area with substrate ENEYFQS” value was 0.0724. In addition, the “area with substrate ENFYFQS” value is 0.0624, the “area with substrate ENGYFQS” value stood at 0.0619, the “area with substrate ENHYFQS” value worked out at 0.0519 and the “area with substrate ENIYFQS” value was 0.0644. The “area with substrate ENMYFQS” value is 0.088, the “area with substrate ENNYFQS” value worked out at 0.0559, the “area with substrate ENPYFQS” value came to 0.0569 and the “area with substrate ENQYFQS” value stood at 0.051. In addition, the “area with substrate ENRYFQS” value is 0.0545, the “area with substrate ENSYFQS” value stood at 0.0594, the “area with substrate ENVYFQS” value turned out to be 0.0654 and the “area with substrate ENWYFQS” value was found to be 0.0043.
